According to PubChem BioAssay AID624417 (National Center for Advancing Translational Sciences (NCATS), 2012):
Out of some 410,000 compounds screened, about 6,400 (1.6%) were called active. The shares of active, inactive and inconclusive entries below differ from those in the screen. Calls follow the shape of the dose curve; as a rule, active = well fitted inhibition curve with a large enough effect; inconclusive = small, poorly fitted or top-dose-only effect; inactive = no such curve, though single readings can be large or run the other way. Potencies of inconclusive entries are left out as doubtful fits.
Also: nearly all actives have a fitted effect of over 55% in size.
Potency is read from the fitted curve at half-maximal effect; tags tell the direction and shape of the fitted curve.

The compounds below were run against Glucagon-like peptide 1 receptor (Homo sapiens) (UniProt P43220) (assay: qHTS of GLP-1 Receptor Inverse Agonists (Inhibition Mode)). Details: HEK293 GLP-1R CRE-luciferase, luminescence, 24 h, GLP-1R form is constitutively active; series mostly up to 38.3 µM.
Sequence of UniProt P43220 (P43220 whole entry, looked up): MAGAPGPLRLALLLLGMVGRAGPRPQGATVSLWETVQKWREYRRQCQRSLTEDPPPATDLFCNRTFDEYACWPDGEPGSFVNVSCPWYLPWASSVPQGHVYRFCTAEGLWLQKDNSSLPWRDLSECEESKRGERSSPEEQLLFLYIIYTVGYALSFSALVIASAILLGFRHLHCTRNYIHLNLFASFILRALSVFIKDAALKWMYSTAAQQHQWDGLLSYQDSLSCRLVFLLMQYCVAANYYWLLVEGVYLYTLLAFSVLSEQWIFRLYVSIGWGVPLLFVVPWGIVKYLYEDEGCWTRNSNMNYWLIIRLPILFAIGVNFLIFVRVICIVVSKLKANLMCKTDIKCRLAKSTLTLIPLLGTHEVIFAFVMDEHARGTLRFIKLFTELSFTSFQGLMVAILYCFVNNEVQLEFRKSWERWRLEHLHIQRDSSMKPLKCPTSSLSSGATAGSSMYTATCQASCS
How it was run: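 Constitutively active GLP-1R drives a cAMP-responsive luciferase in stably transfected HEK293 cells; test compounds are added after overnight (12 h) attachment and left 24 hr, and signal loss in luminescence marks inhibition.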
In the case of CN(CCCn1ccc(NC(=O)OCc2ccccc2)nc1=O)CCc1ccccn1, the Potency is reported as “inactive”.
With CC(C)c1cccc(C(C)C)c1OC(=O)[C@H]1OC(c2ccc(Br)cc2)=C[C@@H]1c1ccc(Br)cc1 the Potency was active: 12.6 µM.
In the case of C=C(C)c1cccc(C(C)(C)NC(=O)N2CCCCC2CC)c1 (centres undefined), the Potency is reported as inconclusive [inhibitor, single point].
In the case of CCOc1ccccc1NC(=S)N1CCCc2ccccc21, the Potency is reported as inconclusive [inhibitor, single point].
For COc1ccccc1N1CCN(C(=O)c2ccc(N(C)S(=O)(=O)c3ccccc3)cc2)CC1, the Potency was inconclusive [inhibitor, single point].
CCCCC(=O)Nc1nnc(SCc2cc(=O)n3cc(C)ccc3n2)s1 was tested, and the Potency was “inactive”.
For CCN(CC(=O)NCc1cccs1)C(=O)c1ccc(S(=O)(=O)Nc2ccccc2OC)cc1, the Potency was “inactive”.
With O=C(Nc1ccc(F)c(F)c1)c1cc(S(=O)(=O)NCc2ccc3c(c2)OCO3)ccc1F the Potency was inconclusive [inhibitor, single point].
For CCCCC[C@H](C)N1C[C@@H](COCc2ccccc2)Oc2cc(N3CC[C@@H](N(C)C)C3)ccc2S1(=O)=O, the Potency was inconclusive [inhibitor, single point].
With O=Cc1cn(CCC(=O)O)nc1-c1cccc2ccccc12 the Potency was “inactive”.
Cc1ccc(OCC(=O)N/N=C/c2ccc3c(c2)OCO3)cc1C was tested, and the Potency was inconclusive [inhibitor, single point].
O=C(Oc1ccc2c(c1)O/C(=C\c1ccncc1)C2=O)c1cccs1 was tested, and the Potency was “inactive”.
CS(=O)(=O)N(CC(=O)Nc1ccc(CC#N)cc1)c1ccc(C23CC4CC(CC(C4)C2)C3)cc1 was tested, and the Potency was inconclusive [inhibitor, partial curve, poor fit].
In the case of COC(=O)c1sc2nc(N3CCCCC3)c3c(c2c1N)CCCC3, the Potency is reported as “inactive”.
With CCOc1nc(NC(=O)NS(=O)(=O)Oc2cccc(Cl)c2)nc(-c2ccccc2)n1 the Potency was “inactive”.
For Cc1ccc(F)c([C@H]2[C@H]3C=CC[C@@H](C)[C@@H]3C(=O)N2Cc2ccccc2)c1, the Potency was active: 10 µM.
COC(=O)C1=CNC=C(C(=O)OC)C1c1cccc2ccccc12 was tested, and the Potency was inconclusive [inhibitor, partial curve, poor fit].
With CCN(CC)CCNC(=O)c1ccc(NC(=O)COc2ccc3c(c2)CCC3)cc1 the Potency was active: 4.47 µM.
With CCc1ccc(S(=O)(=O)/N=C2/C=C(Sc3ncn[nH]3)C(=O)c3ccccc32)cc1 the Potency was inconclusive [inhibitor, single point].
